# Hit rate of the full screen: of about 50,000 compounds, about 800 (1.6%) showed an effect of 50% or more. The list shows a part of the results.
# Target: Bcl-2-like protein 10 (Homo sapiens) (UniProt Q9HD36)
# Assay: TR3 peptide-Bcl-B binding displacers, biochemical primary FP assay, phenotype converters (AID 1240);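 also: 0% = Bcl-B with tracer peptide and DMSO and 100% = tracer peptide lacking Bcl-B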
# Settings: GST-Bcl-B / FITC-TR3 peptide fluorescence polarization; stronger effect = higher value; compound at 3.75 mg/L
# UniProt Q9HD36, sequence (Q9HD36 whole entry, looked up): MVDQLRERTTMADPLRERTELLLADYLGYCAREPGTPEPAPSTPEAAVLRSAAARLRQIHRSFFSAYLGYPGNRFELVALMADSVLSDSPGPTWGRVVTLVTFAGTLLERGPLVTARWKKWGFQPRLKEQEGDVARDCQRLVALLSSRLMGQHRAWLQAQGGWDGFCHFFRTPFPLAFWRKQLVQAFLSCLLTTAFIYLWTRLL
row,SMILES,displacement
1,Cc1ccnc(NS(=O)(=O)c2ccc(NC(=O)c3cc(Cl)ccc3[N+](=O)[O-])cc2)n1,7%
2,CC1CCc2c(sc(NC(=O)CSc3nncn3C)c2C#N)C1 (stereo unspecified),-5.3%
3,O=C(CN(Cc1ccccc1)S(=O)(=O)c1ccccc1)Nc1cccc(Cl)c1,1.8%
4,O=C(/C=C\c1ccccc1)Nc1ccc2nn(-c3ccc(F)cc3)nc2c1,-6.6%
5,CCc1cc2c(C)c(CC)c(=O)oc2cc1OCC(C)=O,13.2%
6,CN1CCN(C(=O)c2cc3ccccc3oc2=O)CC1,8.4%
7,COc1ccc(-c2cc(C(=O)Nc3sc4c(c3C(N)=O)CCCC4)c3ccccc3n2)cc1OC,2.6%
8,COc1ccc(CN2CCN(C3CCN(Cc4ccccc4)CC3)CC2)c(OC)c1,-6.3%
9,O=C(NCCN1CCOCC1)C1CCCC1,-3.4%
10,C=CCn1c(SCC(=O)N2CCOCC2)nc(O)c(Cc2ccccc2)c1=O,-0.9%
11,O=C(Nc1ccc(Cl)cc1)c1ccccc1C(F)(F)F,9.7%
12,CC1=C(C(=O)OC(C)C)C(c2ccc(F)cc2)C(C(=O)OC(C)C)=C(C)N1,54.7%
13,CCOC(=O)COc1ccc2cc(-c3nc4ccccc4[nH]3)c(=O)oc2c1,7.3%
14,CCCc1cc(=O)n2[nH]c(-c3cccc(C)c3)cc2n1,12.6%
15,COc1cc(OC)cc(C(=O)Nc2cc(C(F)(F)F)cc(C(F)(F)F)c2)c1,-4.9%
16,Oc1ccc(Br)cc1/C=N/Nc1ncc(Br)cn1,-11.3%
17,S=C(Nc1ccc2c(c1)oc1ccccc12)Nc1cccc2ccccc12,-2.1%
18,CN(C1=NC(=O)S/C1=C\c1ccc([N+](=O)[O-])cc1)c1ccc(O)cc1,16.4%
19,CC(NC(=O)c1cc2cc([N+](=O)[O-])ccc2oc1=O)c1ccccc1 (stereo unspecified),12.2%
20,Cc1cc(Br)c2c(c1)c(N=NC(N)=S)c(O)n2C,4.9%
21,O=C1c2cccc3cccc(c23)C(=O)N1CCc1nc2sc3c(c2c(=O)[nH]1)CCCC3,-6%
22,COc1ccccc1N1CCN(/N=C/c2ccc(C(=O)O)cc2)CC1,21%

row,SMILES,displacement
1,COc1ccc(/C=C2\SC(=Nc3ccc(C)cc3)N(c3ccc(C)cc3)C2=O)cc1C(=O)O,-49.6%
2,CC(C)OC(=O)C1C(=O)CC(C)(O)C(C(=O)OC(C)C)C1c1cccc([N+](=O)[O-])c1 (stereo unspecified),-22.5%
3,Cn1cnnc1SCC(=O)N1c2ccccc2Sc2ccccc21,0.1%
4,COc1ccc(N2C(=O)NC(=O)/C(=C/c3cccn3-c3ccc([N+](=O)[O-])cc3)C2=O)cc1,-1.7%
5,O=C(N/C(=C/c1cccs1)C(=O)N1CCOCC1)c1cccs1,-12.2%
6,CC(=O)c1cccc(NC(=O)C(Sc2ccccc2)c2ccccc2)c1 (stereo unspecified),-4.5%
7,CC(C)(C)CC(C)(C)NC(=O)CSc1nnc(-c2cccc(F)c2)n1-c1ccccc1,-14.6%
8,COc1ccc(N2C(=O)c3ccc(C(=O)Nc4ccccc4I)cc3C2=O)cc1,10%
9,Cc1cc2ncn(CC(O)COc3ccc(Br)cc3)c2cc1C (stereo unspecified),-39.8%
10,O=C1NC(c2ccc(F)cc2)Oc2ccccc21 (stereo unspecified),-8.6%
11,Cc1ccc(C(=O)NCCNc2ccc([N+](=O)[O-])cc2Cl)o1,1.6%
12,COc1ccc(NC(=O)c2ccc(Cc3ccc(C)cc3)o2)cc1,9.5%
13,COCCOC(=O)c1c(C)oc2ccc(OCc3ccccc3F)cc12,15%
14,COc1ccc(OC)c(C2/C(=C(/O)c3ccccc3)C(=O)C(=O)N2c2nc3ccccc3s2)c1 (stereo unspecified),-6%
15,COc1ccc(C2Nc3ccccc3C(=O)N2Cc2ccco2)cc1COc1ccc(NC(C)=O)cc1 (stereo unspecified),-5.1%
16,CN(C)c1c([N+](=O)[O-])cc([N+](=O)[O-])c2cccnc12,2.9%
17,O=C(c1ccc(Cl)cc1)c1ccc2c(c1)OCCCO2,3.3%
18,CCN(CC)c1ccc(NC(=O)S(=O)(=O)c2ccccc2)cc1,-1.3%
19,COc1ccc(/C=C/C(=O)c2cccc(Br)c2)cc1[N+](=O)[O-],-2.7%
20,COCCCNC(=O)CN(c1cccc(Br)c1)S(=O)(=O)c1ccccc1,-5%
21,Cc1cccn2c(=O)c(/C=C3\SC(=S)N(CC4CCCO4)C3=O)c(NCCc3ccccc3)nc12 (stereo unspecified),8.5%
22,COc1cc(/C=c2\sc3nc4ccccc4n3c2=O)cc(Cl)c1OCCOc1ccc(Br)cc1,-2.9%

row,SMILES,displacement
1,O=C1CSC(c2ccccc2)N1c1ccc([N+](=O)[O-])cc1 (stereo unspecified),7.3%
2,CC1=Cc2cc([N+](=O)[O-])ccc2OC12C=Cc1c(ccc3ccccc13)O2 (stereo unspecified),0%
3,COc1ccc(C2CC(=O)C3=C(C2)Nc2ccccc2NC3c2ccccc2C(F)(F)F)cc1OC (stereo unspecified),-7.1%
4,CC(C)CC(=O)N1CCN(Cc2c[nH]c3ccccc23)CC1,-4.2%
5,O=C(Nc1ccc(Br)c(Cl)c1)c1cccs1,2.1%
6,O=C(/C=C/Nc1ccccc1)c1ccccc1,11.9%
7,CCN(CC)CCC(=O)c1ccc(O)cc1,5.6%
8,O=C(Nc1ccc([N+](=O)[O-])cc1)c1ccc(Cl)cc1Cl,8.8%
9,Fc1cccc(Cl)c1COc1ccc(/C=N/n2cnnc2)cc1,9.4%
10,CCOC(=O)c1sc(Nc2ccccc2)nc1-c1ccc([N+](=O)[O-])cc1,-6%
11,O=[N+]([O-])c1ccc(/C=N\Nc2nc(-c3ccccc3)c3cc(Cl)ccc3n2)o1,-5.3%
12,CN1C(=O)C(=Cc2ccc(OCc3ccccc3F)cc2)C(=O)N(C)C1=O,9.6%
13,C=CCN=C1CC(C)(C)CC(=O)/C1=C(/O)CCC,-2.7%
14,COc1ccccc1NC(=O)C1C2C=CC(C3CC23)C1C(=O)O (stereo unspecified),-4.2%
15,CCOC(=O)C1=C(O)/C(=C/c2ccc(Cl)cc2)SC1=Nc1cccc2ccccc12,-11.7%
16,Cc1cc(C)c(/C=N/NS(=O)(=O)c2ccc(Cl)cc2)c(C)c1,-9.5%
17,COc1ccc(C(=O)N=Nc2c(O)n(CN3CCN(C)CC3)c3ccccc23)cc1,-6.2%
18,Cc1ccc(C(=O)N/C(=C\c2cccc([N+](=O)[O-])c2)C(=O)NCC(C)C)cc1,7.3%
19,C[n+]1ccc(/C=C/c2ccc(O)cc2)cc1,-7.4%
20,CCOC(=O)c1cccc(NC(=O)c2ccc(Cl)cc2Cl)c1,5%
21,Cc1ccc2oc(Nc3nc(C)cc(=O)[nH]3)nc2c1,7.3%
22,COc1cc2c(cc1NC(=O)CCC1CCCC1)oc1ccccc12,6.4%

row,SMILES,displacement
1,Cc1cccc(OCCSc2nc3ccccc3c(=O)[nH]2)c1,1.8%
2,COc1cc(-c2nnc3ccc(C(F)(F)F)cn23)ccc1Oc1ccc([N+](=O)[O-])cc1,-9.2%
3,O=C(NC(NC(=O)c1ccccc1)c1cccc([N+](=O)[O-])c1)c1ccccc1,-1.1%
4,COc1ccc(-c2nnnn2C)cc1S(=O)(=O)Nc1ccc(C)c(Cl)c1,8.3%
5,CCN(CC)c1ccc(N=Cc2ccc(Cl)cc2Cl)cc1,-7.2%
6,Cc1ccc(C)c(NC(=O)c2cccc(Cl)c2)c1,-5.3%
7,CC(C)NCC(=O)C12CC3CC(CC(C3)C1)C2,0.7%
8,C/C(Cn1nnc([N+](=O)[O-])n1)=N/NC(=O)Cc1ccccc1,-2.3%
9,CCOC(=O)C(=CNc1cc(OC)cc(OC)c1)C(=O)OCC,2.7%
10,CC(C)(C)NC(=O)c1cc(-c2ccccc2)n(-c2ccccc2)n1,0.3%
11,Cc1ccc([N+](=O)[O-])cc1/C=N/NC(=O)CSCC(=O)Nc1ccccc1,-8.1%
12,FC(F)(F)c1cccc(Nc2nc(-c3ccncc3)nc3ccccc23)c1,11.1%
13,C=CCOc1ccc2c(C)cc(=O)oc2c1C,-8%
14,CC(C)(C)c1cc(C(c2ccccc2O)N2CCOCC2)cc(C(C)(C)C)c1O (stereo unspecified),-3.1%
15,C/C(=N\NC(=O)C(O)c1ccccc1)c1cccc(NC(=O)c2ccco2)c1 (stereo unspecified),-5.8%
16,Cc1ccc2c(c1)NC(c1ccc(C)o1)C1=C(CC(C)(C)CC1=O)N2 (stereo unspecified),88.5%
17,CCOC(=O)NC(Nc1ccccc1[N+](=O)[O-])(C(F)(F)F)C(F)(F)F,2.3%
18,Cc1nn(-c2nc3ccccc3s2)c(C)c1Oc1ccccc1O,-9.6%
19,COC(=O)c1c(C)oc2ccc(OC(=O)c3ccco3)cc12,11.7%
20,Cc1cc(C(=O)/C=C/c2ccc(N(C)C)cc2)ccc1[N+](=O)[O-],-10.3%
21,COc1ccc(Br)cc1C(=O)Nc1ccc(N2CCOCC2)cc1,8.6%
22,COc1cc(NC(=O)c2ccc3c(c2)C(=O)N(CC2CCCO2)C3=O)c(C(=O)O)cc1OC (stereo unspecified),11%

row,SMILES,displacement
1,CCC(Oc1ccccc1)C(=O)Nc1cccc(F)c1 (stereo unspecified),10.7%
2,COc1ccc(-c2csc(NC(=O)c3ccccc3OC)c2C(=O)O)cc1,-0.3%
3,O=C1Nc2ccccc2C1=Cc1nc2ccccc2c(=O)n1-c1cccc2ccccc12,-2.3%
4,CC(C)Oc1cccc(-c2cc(C(=O)O)c3ccccc3n2)c1,-3.8%
5,COc1ccc(NC(=O)Nc2ccccc2OC)cc1,3.7%
6,COCCCNC(=O)c1ccc(Br)cc1,-10%
7,O=C(NC(=S)Nc1nc(-c2ccccc2)cs1)c1ccccc1,-5.7%
8,O=C(CCCC(=O)OCC(F)(F)C(F)F)Nc1ccc(NC(=O)CCCC(=O)OCC(F)(F)C(F)F)cc1,7.8%
9,c1ccc2c(c1)OCC(CSc1nc3ccccc3[nH]1)O2 (stereo unspecified),-25.1%
10,CCCCNC(=O)/C(=C/c1ccc(OC)cc1)NC(=O)c1ccc([N+](=O)[O-])cc1,-2.4%
11,O=C(Nc1cc(Cl)ccc1C(=O)O)c1ccc2c(c1)C(=O)N(c1ccccc1-c1ccccc1)C2=O,-3.2%
12,O=C1NN=C2C3CCC4CC12CC1(C3)C(=O)NN=C41,4.5%
13,O=C(O)CCCC(=O)N1N=C(c2ccc(Br)cc2)CC1c1ccco1 (stereo unspecified),13.8%
14,CCOC(=O)c1c(NC(=O)c2ccc(C)o2)sc2c1CCCCCC2,-9.7%
15,O=C(Nc1ccc(Cl)cn1)C(c1ccccc1)c1ccccc1,-18.5%
16,CN1CCN(c2cc(=O)n(-c3ccccc3)c3ccccc23)CC1,-2.6%
17,O=C(Oc1ccc([N+](=O)[O-])cc1)c1ccc(-c2ccccc2)cc1,3.2%
18,COc1cc(C(=O)Nc2c(-c3ccccc3)c3cc(Br)ccc3[nH]c2=O)cc(OC)c1OC,10.5%

# — PubChem BioAssay AID1240 (Sanford-Burnham Center for Chemical Genomics, 2008)
